Test results: the supplement of paper PMC3334620
Whole data set: some 33,000 sequences, median “E-score (-0.5 to 0.5)” near -0.054, cut for the highest 2% near 0.35. This is one part of the list.

Each sequence was assayed against T1, Stb5 (UniProt P38699) (assay: PBM E-score (8-mer binding enrichment) (E-score (-0.5 to 0.5)); higher = stronger / more preferred TF binding; most listed sequences are background and not binding sites). Conditions: protein concentration: 200 nM; construct: GST-full length.
T1 sequence: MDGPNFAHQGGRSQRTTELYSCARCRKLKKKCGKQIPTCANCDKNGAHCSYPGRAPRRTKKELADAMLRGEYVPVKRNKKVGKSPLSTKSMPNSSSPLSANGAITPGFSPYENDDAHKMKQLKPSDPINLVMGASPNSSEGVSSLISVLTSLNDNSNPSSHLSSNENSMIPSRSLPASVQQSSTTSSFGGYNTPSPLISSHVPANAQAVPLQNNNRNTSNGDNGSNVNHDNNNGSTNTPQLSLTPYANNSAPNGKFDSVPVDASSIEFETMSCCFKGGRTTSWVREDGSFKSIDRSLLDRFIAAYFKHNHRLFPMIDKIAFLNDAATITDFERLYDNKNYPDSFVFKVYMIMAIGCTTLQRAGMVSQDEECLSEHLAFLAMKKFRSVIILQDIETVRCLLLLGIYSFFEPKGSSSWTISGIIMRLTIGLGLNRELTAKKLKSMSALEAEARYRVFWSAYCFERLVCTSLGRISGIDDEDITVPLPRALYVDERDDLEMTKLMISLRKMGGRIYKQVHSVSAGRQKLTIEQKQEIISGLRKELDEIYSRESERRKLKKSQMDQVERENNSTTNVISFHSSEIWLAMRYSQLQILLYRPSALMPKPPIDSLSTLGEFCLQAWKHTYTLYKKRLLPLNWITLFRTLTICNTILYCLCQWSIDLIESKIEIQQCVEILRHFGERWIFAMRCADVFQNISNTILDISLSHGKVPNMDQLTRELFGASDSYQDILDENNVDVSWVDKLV
Procedure, shortened: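 Yeast transcription factors, full-length or as DNA-binding domains, were expressed with a GST tag using PURExpress in vitro transcription/translation. At about 100-200 nM they were applied to universal all-10-mer Agilent arrays, double-stranded by primer extension on fresh or once-stripped slides. Fluorescent anti-GST detected bound protein, and masliner normalised the scans. E-scores for ungapped eight-base words, pooled with reverse complements, came from the Universal PBM Analysis Suite.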

| Sequence | PBM E-score |
| --- | --- |
| ATACTTGC | -0.0909 |
| GCGAGTAC | -0.0625 |
| AGGCTTTG | -0.215 |
| CCGTGACA | 0.168 |
| CGGGTGGC | 0.0399 |
| GATCTGTA | -0.143 |
| GTATCTGA | -0.188 |
| AGGTCATG | -0.219 |
| AGGTCAGA | -0.142 |
| TTAGTCAA | -0.163 |
| ATGCTCGG | 0.0371 |
| CTCCCGGC | 0.166 |
| AAGTGGAT | -0.0158 |
| AAACGTCT | -0.292 |
| CGTTGTCA | -0.0225 |
| AAACGGAA | 0.182 |
| GCGGAGGA | 0.213 |
| CCTATGGA | -0.0247 |
| ACGCGTGG | -0.055 |
| CAACTAAC | 0.184 |
| CCAGACGC | -0.137 |
| CCTGGTGC | 0.0141 |
| TGCCCAAA | -0.204 |
| AACCTAAC | 0.00083 |
| AAGGTGGG | -0.198 |

| Sequence | PBM E-score |
| --- | --- |
| GGCATTTA | 0.29 |
| CCAGATAA | 0.0381 |
| ACCCTGCG | -0.165 |
| AAGTGCCT | -0.29 |
| ATGAGCTG | -0.181 |
| AGCACTAC | -0.145 |
| ATGTGTAC | -0.257 |
| CAAGCAGA | -0.214 |
| ATAGCGCC | 0.361 |
| ATTAGCTA | -0.323 |
| CAACCGGC | 0.303 |
| ATTCGCCC | 0.125 |
| AAATGAAG | -0.0745 |
| ACAAACCA | -0.256 |
| AACGCGCA | -0.242 |
| ACTGCTGA | -0.245 |
| GCCATCTA | -0.119 |
| CCTGTAGA | -0.172 |
| AGAATAAG | 0.0311 |
| AGATCAAA | -0.058 |
| ATACCCTG | -0.0145 |
| CTGAGTAA | -0.22 |
| ACTCCACG | -0.0714 |
| ATAATAAC | 0.185 |
| CTAAGCCA | -0.252 |

| Sequence | PBM E-score |
| --- | --- |
| AAAAAATT | -0.124 |
| AGTCCCAG | -0.293 |
| GGGCCGCA | 0.232 |
| CCGTTAAC | 0.281 |
| CTCCTTGA | 0.0227 |
| AGTTGGAC | -0.17 |
| ACGAGTAT | -0.129 |
| GGCAATCA | -0.0494 |
| CATGTTGG | 0.0872 |
| ACCAAGCT | -0.228 |
| CACCAGGG | -0.284 |
| AAGCGTAC | -0.289 |
| AATCTATA | 0.027 |
| ATAGGATG | -0.144 |
| AGCGAGGC | -0.164 |
| CGGGGTGA | 0.432 |
| CACGTACA | -0.211 |
| AGTCCGCC | 0.42 |
| ATAGTAAG | -0.138 |
| GACTTCGA | -0.104 |
| GCGAGTTA | -0.111 |
| CAGCTTCG | -0.0878 |
| GATTTAGA | 0.0334 |
| CGCAACCG | 0.181 |
| AAGCTTAC | -0.155 |

| Sequence | PBM E-score |
| --- | --- |
| TCGGTGAA | 0.269 |
| TAACATGA | -0.0944 |
| CGCCCTGC | 0.0443 |
| GAGGGAGA | -0.29 |
| AAAACCTC | 0.0839 |
| CAGTGCTC | -0.266 |
| ATTAAGCA | -0.0755 |
| ACTGTGCA | -0.187 |
| CCTTTTTA | -0.015 |
| CGAGGTTA | 0.0887 |
| TGAGGCCA | -0.344 |
| CGTAAATC | 0.0199 |
| AGCCTACG | -0.216 |
| CATTGGAC | -0.19 |
| CATCCCTC | -0.122 |
| ATCATTGG | -0.252 |
| TAATTAAA | -0.168 |
| GGAGTCCA | 0.0404 |
| TAAATGCA | -0.18 |
| AGTCAGAG | -0.105 |
| TAATCGCA | -0.0155 |
| AGCGTTGC | -0.065 |
| AAGAGAAG | -0.293 |
| CAACGGCG | 0.272 |
| AGTGTTGC | -0.283 |

| Sequence | PBM E-score |
| --- | --- |
| TAGAACGA | -0.233 |
| ACTCACCC | 0.0247 |
| ACTCCGCC | 0.384 |
| ACGACAGG | -0.0875 |
| AGGTTCGC | -0.245 |
| AATATGTA | 0.043 |
| CAAGTGAA | -0.152 |
| TGAACGAA | -0.234 |
| ATACACCC | 0.254 |
| GGACCACA | 0.0639 |
| CGTTTTAG | -0.0485 |
| ACGAAGTA | -0.0966 |
| AAAGTGTT | -0.0765 |
| GCTCAGGA | -0.206 |
| GGACTGTA | 0.0186 |
| ACATCGCT | -0.221 |
| CGGCAAAC | 0.113 |
| ACTCGGGG | 0.185 |
| AGGTTCCA | -0.166 |
| AGGCAGAT | -0.188 |
| CCTCCAGA | -0.0883 |
| AATGCGGT | 0.208 |
| CTCCCATA | -0.103 |
| ATCTCTTG | -0.16 |
| GAGGGAAA | -0.297 |

| Sequence | PBM E-score |
| --- | --- |
| GCTACGCC | 0.0615 |
| AGGGCACT | -0.3 |
| CCGTAACC | 0.246 |
| ATTGCAGA | -0.201 |
| ACAGCCAC | -0.136 |
| CACCCTGG | -0.351 |
| CCTCATGC | -0.138 |
| ATCGTCCG | 0.206 |
| AAATTCAT | -0.18 |
| CACCCGTA | -0.0744 |
| ACTTCATG | 0.0333 |
| AACAGTTA | 0.101 |
| CCGCGAAC | 0.238 |
| AGAGGAGC | -0.189 |
| ACGCGCCG | 0.166 |
| AATCCATG | -0.0649 |
| CCTAGGTA | -0.216 |
| AGGCTCAG | -0.357 |
| GGCGGAAA | 0.227 |
| ATACCCCC | 0.351 |
| CGGGAAAC | 0.116 |
| ACCATGGT | -0.302 |
| CGGTCGTC | 0.0319 |
| CCCCTTTA | -0.166 |
| ACTCTGAG | -0.207 |

| Sequence | PBM E-score |
| --- | --- |
| GAGAACCA | -0.0472 |
| ATACTCTC | -0.0256 |
| CCCCCACC | -0.158 |
| CACGGGAA | 0.111 |
| CCCAGACG | -0.0786 |
| ATAGGCTG | -0.136 |
| AGTCAGGG | -0.275 |
| ACTATGTC | 0.00039 |
| AGCCTTGC | -0.208 |
| ACGTAGGG | -0.0549 |
| GCTTCGAC | -0.137 |
| GAGGATCA | -0.137 |
| CGAGCAGC | -0.0896 |
| AATTTAGT | -0.162 |
| AGATGGAA | -0.128 |
| TGCGGCCA | 0.0185 |
| GTGGTTGA | -0.123 |
| CCAAATGG | 0.0606 |
| CGGTTCGC | -0.00452 |
| AAGGCGTA | -0.114 |
| AAGTATTA | -0.171 |
| GACCAAAC | -0.0734 |
